# Data taken from the supplement of paper PMC3334620.
# Whole data set: some 33,000 sequences, median “E-score (-0.5 to 0.5)” near -0.016, cut for the highest 2% near 0.32. This is one part of the list.
# Target: T1, Stp1 (UniProt B3LFK1)
# T1 sequence: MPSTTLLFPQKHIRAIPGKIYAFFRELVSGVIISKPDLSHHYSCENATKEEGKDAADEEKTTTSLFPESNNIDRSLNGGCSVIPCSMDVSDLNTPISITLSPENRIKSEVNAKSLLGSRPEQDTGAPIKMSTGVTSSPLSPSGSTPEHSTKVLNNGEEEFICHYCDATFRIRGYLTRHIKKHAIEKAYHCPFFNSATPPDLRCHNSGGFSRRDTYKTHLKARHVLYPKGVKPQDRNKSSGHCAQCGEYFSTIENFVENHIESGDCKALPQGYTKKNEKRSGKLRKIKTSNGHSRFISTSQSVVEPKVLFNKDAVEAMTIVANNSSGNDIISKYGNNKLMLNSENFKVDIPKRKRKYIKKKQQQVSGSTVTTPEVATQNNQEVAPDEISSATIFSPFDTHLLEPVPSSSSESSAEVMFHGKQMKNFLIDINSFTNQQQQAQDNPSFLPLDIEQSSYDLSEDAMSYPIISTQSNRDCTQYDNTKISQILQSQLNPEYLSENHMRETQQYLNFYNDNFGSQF
# Assay: PBM E-score (8-mer binding enrichment) (E-score (-0.5 to 0.5)); higher = stronger / more preferred TF binding; most listed sequences are background and not binding sites
# Conditions: protein concentration: 200 nM; construct: GST-full length
# How it was run: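 For each ungapped eight-base word taken together with its reverse complement, the Universal PBM Analysis Suite assigned an E-score. Binding data came from GST-tagged yeast transcription factors, applied at about 100-200 nM, on universal all-10-mer Agilent arrays made double-stranded by primer extension. Fluorescent anti-GST marked bound protein, and scans were normalised with masliner.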
row,Sequence,PBM E-score
1,AAGGGAAA,0.0605
2,CCGAAGCG,-0.0733
3,ATACCAGA,-0.0175
4,ACCAGACG,-0.0112
5,GGTGCAAA,-0.00393
6,GGGCCGGA,-0.0663
7,AGTATGGA,0.0327
8,AGCCCGTG,-0.0717
9,CACGATGA,0.0781
10,ACGTACGA,-0.0101
11,ATGGCGAG,-0.138
12,CAGCCGTA,0.306
13,ACCCTCCT,-0.234
14,GATTGAGC,-0.0505
15,CAGTAGCA,0.00349
16,GTTAAAGA,0.133
17,AATCAGGC,-0.0126
18,GCTCAACC,-0.0201
19,GAAATTGA,0.154
20,AAGAGAAA,0.0422
21,AGTAAGAA,0.11
22,CTAGCTGA,-0.11
23,TGCGGGAA,0.0556
24,AGTTATCC,-0.109
25,ACGTGTCC,-0.213

row,Sequence,PBM E-score
1,AATACCAG,0.00341
2,AACCGCTG,-0.21
3,CCAAACAC,0.0602
4,GCGTGGGA,-0.0429
5,AAGACCTG,-0.307
6,AAAGCGAG,0.0598
7,GCATTCTA,0.118
8,CGAAAGGA,-0.102
9,AAAGCACG,0.0591
10,CACCCCCA,-0.371
11,GAAGTGCC,0.309
12,ATATCGTG,0.073
13,AATGGCCG,0.108
14,AAGGAACA,-0.0527
15,CTCTCGTC,-0.13
16,CGCACATC,-0.0745
17,TGGTTAAA,0.0931
18,CTCAGAGA,0.0644
19,CATTTAGA,0.0352
20,ACTTTCCA,-0.0594
21,TATGCATA,0.00403
22,GTCATCCA,-0.178
23,ATTCGGCC,-0.109
24,GGGATTAC,-0.352
25,CCTCTACC,-0.24

row,Sequence,PBM E-score
1,ACCTTTCT,-0.0776
2,ATAAATGC,0.262
3,CTTGTGCC,0.151
4,ATAATTAT,0.272
5,ATGCTTTG,0.0447
6,CGTAAAAA,0.11
7,AGACACAA,0.154
8,AGGACCCT,-0.253
9,GTGAATAA,0.109
10,ATTGGGAC,-0.212
11,ACACTGCC,0.25
12,CTCACGGA,0.0462
13,ATTGTATC,0.0957
14,CCCCAGGC,-0.428
15,ATCAACCG,-0.0921
16,ACAGAGGG,-0.176
17,TGTCTGAA,0.119
18,GATACCAC,0.128
19,ACGAGCTC,-0.0241
20,GGTCGACA,-0.214
21,CATAGCAG,-0.297
22,AGGTCTAG,-0.241
23,AGATATAG,0.111
24,ACGCGAGT,-0.0922
25,AAGCAAAC,0.102

row,Sequence,PBM E-score
1,AGTTTTCA,-0.0566
2,AAGCTTCT,-0.197
3,AGGATGGG,-0.177
4,CACAAGAA,0.274
5,ATAGTGTA,0.0651
6,GGGATACC,-0.258
7,CAATGAAA,0.0497
8,CGTAGGGA,-0.051
9,AACTCAGC,-0.106
10,CCTCCCCA,-0.243
11,AACATTGC,0.0979
12,CGTTGGAA,0.0876
13,AGTAACCG,0.14
14,AACGTACC,-0.0951
15,AGCAAGGG,-0.0539
16,GAGCCGGA,0.0514
17,CTTTGTAA,0.155
18,AAAGAACG,0.106
19,ACGGACAG,0.00642
20,ACCATTCC,0.00123
21,GCGGATGA,0.0593
22,ACCAATCT,0.0622
23,CTGATGAC,-0.0444
24,AGGCGTTG,0.286
25,ACACCTCC,-0.145

row,Sequence,PBM E-score
1,GTGGATCA,-0.0762
2,ATACAATA,0.168
3,ACCCTCGC,-0.154
4,CATGAGAG,0.0402
5,AAAAAACG,0.162
6,CGCTAATC,-0.201
7,CCGTTAGC,0.0331
8,CAGATTCC,-0.0521
9,GGAATTTA,0.196
10,AACCTCCC,-0.156
11,CGGTGATA,-0.0197
12,CTATCGCC,0.0882
13,AAGCAACT,0.0616
14,AGTAGTTG,0.0992
15,CTGACCTC,-0.247
16,TACCGCGA,-0.00309
17,GTGAAAGA,0.102
18,AAATCGTG,0.133
19,GTAGGGCA,0.132
20,ATCCCTTG,-0.272
21,GAGATACC,-0.0407
22,CAAGGAAG,-0.014
23,GATGTCCA,0.106
24,TGAGTGAA,-0.131
25,CTTGTATC,-0.0147

row,Sequence,PBM E-score
1,GCCGGACC,-0.0277
2,AGGCAGCG,0.0789
3,ATCAGAAG,0.116
4,CACCTCAC,-0.122
5,CTTTTACA,0.205
6,ACCGTTGG,-0.28
7,CATTAGTC,0.0203
8,ACATGAGG,-0.058
9,CGAAAGAC,0.0303
10,GGTGTAAC,0.0929
11,ACGGCGCA,0.482
12,ATCCCACA,-0.223
13,ACGGGGTC,-0.00529
14,ATTCAGCC,0.0277
15,ATGCACGG,0.174
16,CCCACGGC,0.417
17,GAAAGAGC,-0.145
18,CCCAAACG,0.0228
19,GAATATGA,-0.0387
20,AGGGTCTA,-0.217
21,GCAGGCCA,-0.154
22,AACCTGAG,-0.2
23,CTCAACGC,-0.00714
24,CGAGGTAG,-0.373
25,AAATGACG,0.142

row,Sequence,PBM E-score
1,CATCTTAA,0.122
2,GCACCTCA,0.116
3,CGCTTCAG,-0.0874
4,CGCACCCA,-0.105
5,CAGCACGC,0.145
6,ATGATGAG,0.0238
7,ACAACGGC,0.308
8,GTCTACTA,-0.0766
9,AGTGCACC,-0.111
10,ACACACAG,0.0943
11,CATGCGGA,0.156
12,CCAGGATA,-0.00304
13,ACGTTATA,0.0885
14,AAGGGAGG,-0.206
15,CGTCGACG,-0.063
16,GTAGTTGA,-0.0461
17,AAGGCGGA,-0.099
18,ACAACCCA,0.0919
19,AGTGCATC,0.00327
20,TGAATACA,0.14
21,CATCAAGA,-0.0275
22,AACGTAAC,0.0571
